The list shows a part of the results.

The target of this assay is T1, OsWOX13 (Oryza sativa, UniProt Q5QMM3 1-267).
T1 sequence: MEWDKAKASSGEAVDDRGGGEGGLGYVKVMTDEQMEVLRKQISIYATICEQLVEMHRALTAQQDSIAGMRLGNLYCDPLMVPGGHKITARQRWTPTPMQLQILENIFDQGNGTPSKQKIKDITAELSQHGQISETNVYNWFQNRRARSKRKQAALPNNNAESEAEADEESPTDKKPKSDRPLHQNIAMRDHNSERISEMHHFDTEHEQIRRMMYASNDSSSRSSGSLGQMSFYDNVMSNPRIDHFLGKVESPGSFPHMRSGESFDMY
Kind of assay: protein-binding microarray (RPBM); PBS, 2% BSA, 51.3 ng/ul salmon testes DNA, 50 uM zinc acetate, 200 nM TF, 25 C, 1 h; high values mean tight binding. Particulars: protein: recombinant; tags: N-terminal polyhistidine and DsRed monomer fusion (pET32a); label: CyDye5-dUTP incorporated in the synthesized complementary strand; 3' TTTTT single-stranded linker to array surface; dsDNA, one strand shown. In short, it runs like this: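 An Axon 4000B scanner gave the binding signal as per-feature fluorescence intensity in arbitrary units. This followed washing of a custom Agilent array that had been incubated for 1 h at 25 °C with 200 nM protein in PBS, 2% BSA, salmon testes DNA and 50 µM zinc acetate. The proteins were transcription factors fused at the N-terminus to polyhistidine and DsRed, expressed in E. coli BL21-CodonPlus and purified on Ni–NTA.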
Take “TAAACTAAAATAATTTTCATTGGCAACGTACGTCAACGGTCGGAGTCACCTAGTGCAG”: the binding signal is 4810 fluorescence intensity (a.u.).

Take “GAGGCCAGATAGTTGATTGAATGAAGAGCTCTTGCAAAGCCGGAGTCACCTAGTGCAG”: the binding signal is 18500 fluorescence intensity (a.u.).

On to “ATCACCCTGATTATCGTTTCTAAGCCATATTTAGCAAACTCGGAGTCACCTAGTGCAG”, for which the binding signal was 7470 fluorescence intensity (a.u.).

For “AAGAAATTGATAAATTAAATCGAATCCAACTTAGCACTATCGGAGTCACCTAGTGCAG”, the binding signal is 42000 fluorescence intensity (a.u.).

For the sequence “ATGGCAAAGATGATTGAAGTACTCGGTTTTGGAGTAATCTCGGAGTCACCTAGTGCAG”, the binding signal was 27300 fluorescence intensity (a.u.).

For the sequence “TAGATCCGTCATCTTGTTAATTAGTACTGTAGCTATCCGTCGGAGTCACCTAGTGCAG”, the binding signal was 8160 fluorescence intensity (a.u.).

Take “CTGTTGATGAAGAAATAAAATCGATCCTTATTTGTGCTGTCGGAGTCACCTAGTGCAG”: the binding signal is 5770 fluorescence intensity (a.u.).

As for “TGTAATTACGAGAACGAGCCTACCTACCAGTGCCACCATACGGAGTCACCTAGTGCAG”, the binding signal was 7280 fluorescence intensity (a.u.).

For “CCACCTACCTCTAATTATCCTCCAATCACAACACTCCACTCGGAGTCACCTAGTGCAG”, the binding signal was 11000 fluorescence intensity (a.u.).

For the sequence “GTACCATTAATGCAATTTATTCATCATGTATAATACTATTCGGAGTCACCTAGTGCAG”, the binding signal was 4300 fluorescence intensity (a.u.).

As to “GCCCTCTAATCATTGTAGCCTTGTGCCTTTCGGCTCCCCGCGGAGTCACCTAGTGCAG”, the binding signal is 5250 fluorescence intensity (a.u.).

In the case of “CAATAATTATGTTCGATTTGTAAAATTCTAATGACAATAACGGAGTCACCTAGTGCAG”, the binding signal was 18200 fluorescence intensity (a.u.).

For “CACAGTTTGCAATTTGACTGTCAAGGCTTTCAGCTCAGACCGGAGTCACCTAGTGCAG”, the binding signal was 3160 fluorescence intensity (a.u.).

Turning to “AATAAATGGTTAGGATTTAAAGATGTCTTTTGGTGGGTGGCGGAGTCACCTAGTGCAG”, the binding signal was 4730 fluorescence intensity (a.u.).

“AGAAATTTAAAGAATAAATTTGAAACTAAACACGGCGCCACGGAGTCACCTAGTGCAG”: the binding signal was 15300 fluorescence intensity (a.u.).

As for “AATCTTTTAGCTATGCTAATTACCATGGGTAATTTGGTTACGGAGTCACCTAGTGCAG”, the binding signal is 4980 fluorescence intensity (a.u.).

With “CCTAAATGGTTTTGCTTGGACACTTCTGGTTACCTTGCATCGGAGTCACCTAGTGCAG”, the binding signal was 3530 fluorescence intensity (a.u.).

As to “ATGCTTATTAACTAGTGTTTGATTTGTTGTTTTGTTTCAACGGAGTCACCTAGTGCAG”, the binding signal is 10300 fluorescence intensity (a.u.).

“CTAAACTTGATTTAATGTATCATCCGGATCCAAAGCCTCGCGGAGTCACCTAGTGCAG”: the binding signal is 40500 fluorescence intensity (a.u.).

For “GGAGAAAAGAAATCAATCAGAAATGTAGAGGAGAAGGATGCGGAGTCACCTAGTGCAG”, the binding signal is 7090 fluorescence intensity (a.u.).

Consider “ATCCAAATTGGCTGTCGGGGCCAGATCACGCTGTGCGCTGCGGAGTCACCTAGTGCAG”, for which the binding signal was 18600 fluorescence intensity (a.u.).

With “GAAGATTTAATTGCAACAAATTTAATAGTGCAATCGGATCCGGAGTCACCTAGTGCAG”, the binding signal was 40800 fluorescence intensity (a.u.).

On to “ATAGTTATAAGTTAATTTATTGGCTTATATGATTCCCTATCGGAGTCACCTAGTGCAG”, for which the binding signal is 5320 fluorescence intensity (a.u.).

Consider “TTTTAGTAAAATTGATAAATATATGAATACATTTAGTTTGCGGAGTCACCTAGTGCAG”, for which the binding signal is 6470 fluorescence intensity (a.u.).

On to “TTCATGCTGCTGGTGCCAATCAAAGGAGAGGACGACTTTTCGGAGTCACCTAGTGCAG”, for which the binding signal is 4430 fluorescence intensity (a.u.).

For the sequence “AGAATAATTATTTAAGTTAAGGTGTGTCACACCCCAATCCCGGAGTCACCTAGTGCAG”, the binding signal is 25100 fluorescence intensity (a.u.).

With “GTAATAAACTAGTAATAATGATGCAATTGATCCCTCCTGCCGGAGTCACCTAGTGCAG”, the binding signal was 6310 fluorescence intensity (a.u.).

Take “TAGTTTGTGATTGATTTGTCGACATCTGGAGGCGTCATGCCGGAGTCACCTAGTGCAG”: the binding signal is 58400 fluorescence intensity (a.u.).

Regarding “AATCCAATCATATTATAGCTAGTATCCAATATTCTTGTTGCGGAGTCACCTAGTGCAG”, the binding signal was 15700 fluorescence intensity (a.u.).

For the sequence “ACGTTTAATATTTATAATTAATTTTCAAACATATCTTTTACGGAGTCACCTAGTGCAG”, the binding signal was 5400 fluorescence intensity (a.u.).

For “TACGATAATTTTAATTATTAGGAGTAAGCTGAAACAAACACGGAGTCACCTAGTGCAG”, the binding signal is 25200 fluorescence intensity (a.u.).

For “ACAATGTAGTTTTGATTAATCATATCGATCCTTGTTCCGACGGAGTCACCTAGTGCAG”, the binding signal was 7360 fluorescence intensity (a.u.).

For “CATCCTGATTGATAAATTTGCTTCCAATAAACCAATAGTGCGGAGTCACCTAGTGCAG”, the binding signal was 47600 fluorescence intensity (a.u.).

On to “GACTGATCAAATCATGATGTTGCGATTCTCGGCGATATCGCGGAGTCACCTAGTGCAG”, for which the binding signal is 5130 fluorescence intensity (a.u.).

Consider “GTATATGATCTCAAATGATTGGATTAATAATAAATTAATCCGGAGTCACCTAGTGCAG”, for which the binding signal was 28700 fluorescence intensity (a.u.).

Regarding “CCATTCAAATTTTAATTTCTTTTATTTCCTTTAGGCATAACGGAGTCACCTAGTGCAG”, the binding signal was 4190 fluorescence intensity (a.u.).

Turning to “ATTAACTAATCACAACTATCTTGCATTAAATTTCATCTCCCGGAGTCACCTAGTGCAG”, the binding signal is 10700 fluorescence intensity (a.u.).

As for “ACAATTAACTAATAATAATTAGTGATTACTTATCTTGATTCGGAGTCACCTAGTGCAG”, the binding signal was 45300 fluorescence intensity (a.u.).

With “AAAGGCCCATCCAATCAATAGTCCATAATCCCTCCCCAAGCGGAGTCACCTAGTGCAG”, the binding signal is 4720 fluorescence intensity (a.u.).

On to “TGTTGATTGCAGGATCAAATCAACTGGCACTCTCATACACCGGAGTCACCTAGTGCAG”, for which the binding signal was 36800 fluorescence intensity (a.u.).

“ACAGCCTGATTGCTTCTAAAGAACTTGTCAGAGTACTAGCCGGAGTCACCTAGTGCAG”: the binding signal was 28400 fluorescence intensity (a.u.).

With “CTGCGTCACGAAAGCGATTGATTGATCATCAGGTAATCCTCGGAGTCACCTAGTGCAG”, the binding signal was 6520 fluorescence intensity (a.u.).

The values are drawn from PMC7819943, “Rice protein-binding microarrays: a tool to detect cis-acting elements near promoter regions in rice”.
